According to article PMC8954037:
Results are given in words; binding and its absence hold for the method and conditions named. Binding seen in cells or lysates may run through a third protein.

Target: Grp94/gp96 (endoplasmic reticulum chaperone), endogenous in human cell lines (human (endogenous in HeLa, MDA-MB-231, HS578T)), P14625
Experiment: co-IP; anti-Grp94 3c4 on HeLa lysate in RIPA buffer after cross-linking of the culture with DSP (200 ug/mL, 5 min, room temperature); linker cleaved before SDS-PAGE
Details: remark: other sources report otherwise

- binding: no binding
B1: calreticulin, endogenous in HeLa cells, P27797 18-417 (protein)
chain: EPAVYFKEQFLDGDGWTSRWIESKHKSDFGKFVLSSGKFYGDEEKDKGLQTSQDARFYALSASFEPFSNKGQTLVVQFTVKHEQNIDCGGGYVKLFPNSLDQTDMHGDSEYNIMFGPDICGPGTKKVHVIFNYKGKNVLINKDIRCKDDEFTHLYTLIVRPDNTYEVKIDNSQVESGSLEDDWDFLPPKKIKDPDASKPEDWDERAKIDDPTDSKPEDWDKPEHIPDPDAKKPEDWDEEMDGEWEPPVIQNPEYKGEWKPRQIDNPDYKGTWIHPEIDNPEYSPDPSIYAYDNFGVLGLDLWQVKSGTIFDNFLITNDEAYAEEFGNETWGVTKAAEKQMKDKQDEEQRLKEEEEDKKRKEEEEAEDKEDDEDKDEDEEDEEDKEEDEEEDVPGQAKDEL
